# Data from PMC12136788.
# This is one part of the list.
# B1: chr8:73046310:73046411:+|3pUTR|ENSG00000147601|msi1|total|mutant (ssRNA)
# RNA: GGGAGUUCUACAGUCCGACGAUCUUGUAUUCUUUAAGAACCUUAUUUUGAUAAAAUGUAAAUUUGUUGAACCCUGCCACAUUCCGUAUCCCCACCCCCAAAUCCUGUUCCAAUGAAAAAAUUAAAACCUGAUACGAAAAAAAACAACAGAGGAUUGAGCAUCA
# B2: chr5:91374913:91375023:-|CDS|ENSG00000113369|unk|total|mutant (ssRNA)
# RNA: GGGAGUUCUACAGUCCGACGAUCGAGACGUGGAAUGGCAAGUUGCUGAAAAUUCCACCAGUUUCUCCCUCUAUCCUCGACUGCCGUAUAAUCCGCGUGGAAUAUUCACUAAUGGUAUGUACACAUUUAAGAGGUUUUUUCCUUCAACAGAGGAUUGAGCAUCA
# B3: chr1:205715917:205716022:-|3pUTR|ENSG00000069275|msi1_unk|FALSE|overlapping (ssRNA)
# RNA: GGGAGUUCUACAGUCCGACGAUCGAGACAGGCUCUGAAUAACCUUUGUUUUCUCCACUUUUUAUUGAUGAUUUAAAACACUCUAGUCUUCCCCUCAAAUCAUGCAUGCAAAUAGGAGGACAGUGGUGGUGACUCAACUGGAUACAACAGAGGAUUGAGCAUCA
# B4: chr1:202892395:202892497:-|3pUTR|ENSG00000117153|unk|FALSE|unique (ssRNA)
# RNA: GGGAGUUCUACAGUCCGACGAUCGCGAGAAGUGACCAUUGUUGGAGCACCAUCCAGAGCUAGUGACCAGUCCAGUGGACAGUUAGUGGGAGAAUCAAAAAUCCUUUCCAGAAUGUCUGUUUCUCACUAUGUGCACCGGGUGAUCAACAGAGGAUUGAGCAUCA
# B5: chr1:51271806:51271833:+|3pUTR|ENSG00000123091|msi1_unk|total|mutant (ssRNA)
# RNA: GGGAGUUCUACAGUCCGACGAUCCAUUUGGGUCAAGGUUUUAUUAAAAGCUACAUUUUAUAACACUGGCACACACAAAAAAGCCGUUUUAAGCUUGUUUGCACAGUUCUUUUUUUCCAUUGGAAAUGGAAUUCAUUGCCUCCGCAACAGAGGAUUGAGCAUCA
# B6: chr4:81602736:81602922:-|CDS|ENSG00000138670|control|control|control (ssRNA)
# RNA: GGGAGUUCUACAGUCCGACGAUCUUCCAUGUACAGCAGCAUAACUCCAGUUUGCUUUCCAAGCCCUCUGAUUGAGAAGCCAAUAGGCAAAGUAAGAAUGAACCUACUUUUAUCAGACACUAUGAUUCGAGCCAGUUGGCUGUUCAACAGAGGAUUGAGCAUCA
# B7: chr17:30248266:30248367:-|3pUTR|ENSG00000108578|msi1|FALSE|unique (ssRNA)
# RNA: GGGAGUUCUACAGUCCGACGAUCUUGGGUGAGAACAACCAAAAUCUUAUCAUGGUCUCAGUCAUAAUCAUUAGGGGGAACUCUAGCCAAAUGGUUUAACUUCUGCCUGUGGAACUGGGGAUUGGGUGGGCAGGAAAAGGUGAUCAACAGAGGAUUGAGCAUCA
# B8: chr7:157269180:157269282:+|3pUTR|ENSG00000009335|unk|total|mutant (ssRNA)
# RNA: GGGAGUUCUACAGUCCGACGAUCAUUUCCGGUUGUUUUAUGUUGAAUGUUCUAUAUCUUAUCCGUUAAUUUGUAUAUUUUAUCCGUAUUUUGGAAACCGCAUAUCUGAGACUGAAGAGAAAUUGACAAUUCACUUAUUUGUGGCAACAGAGGAUUGAGCAUCA
# B9: chrX:129805617:129805718:-|3pUTR|ENSG00000188706|msi1|FALSE|unique (ssRNA)
# RNA: GGGAGUUCUACAGUCCGACGAUCUCUUUUCCCAUUAGAUAUAUGUAAGUAGUUGUAGUAGAGAUAAUAAUUGACAUUUCUCGUAGACUACCCAGAAACUUUUUUAAUACCUGUGCCAUUCUCAAUAAGAAUUUAUGAGAUGCCCAACAGAGGAUUGAGCAUCA
# B10: chr12:95077336:95077437:-|3pUTR|ENSG00000180263|msi1|FALSE|unique (ssRNA)
# RNA: GGGAGUUCUACAGUCCGACGAUCUCCUCAUUGACCCAUCCGCAUCUCUGUUUAUCCAAGACUUCUCUGUGAUAGCUGACCCUUAGUCUUUCUCUCCCCUAUUCCUCCAGACUAGAUCCUGUCUCCUUCCUGCAGCCCCGACACCAACAGAGGAUUGAGCAUCA
# B11: ENSG00000070961:be:win_2701|CDS|ENSG00000070961|bound_else_gene|NA|bound_elsewhere_windowed (ssRNA)
# RNA: GGGAGUUCUACAGUCCGACGAUCGCUCUGGCAACGGAACCACCCACUGAGUCUCUCUUGCUUCGGAAACCUUAUGGUAGAAAUAAGCCUCUCAUCUCACGUACAAUGAUGAAGAAUAUUUUGGGUCAUGCAUUCUAUCAACUUCAACAGAGGAUUGAGCAUCA
# B12: chr12:57626096:57626197:-|3pUTR|ENSG00000135454|msi1|FALSE|unique (ssRNA)
# RNA: GGGAGUUCUACAGUCCGACGAUCGUGUCUCUGCAAUGCUGUGGGCACAAAAGAAGGGGCACCAGAGUCCCUGUGCAAACACCUAGACUCACUUCAUGGAUUCCAAAGCUCUCAGCUUCAUUUUAUUAGUUACGUUAGGUAAGGCAACAGAGGAUUGAGCAUCA
# B13: chr18:54155150:54155251:-|3pUTR|ENSG00000134046|unk|FALSE|unique (ssRNA)
# RNA: GGGAGUUCUACAGUCCGACGAUCUUUCCACUGGCUUUUGCCUGUAAGAAAAAAAAUGUACCCGAGCACAUAGAGCUUUUUAAUAGCACUAACCAAUGCCUUUUUAGAUGUAUUUUUGAUGUAUAUAUCUAUUAUUCAAAAAAUCAACAGAGGAUUGAGCAUCA
# B14: ENSG00000107863:be:win_4901|CDS|ENSG00000107863|bound_else_gene|NA|bound_elsewhere_windowed (ssRNA)
# RNA: GGGAGUUCUACAGUCCGACGAUCAAACCGACAGCGAGAGCGAGUUUCCCGUGUUCCCCACAGCCUUGACUUCAGAGAGGCUUUUCCGAGGAAAACUGCAAGAAGUGACUAAGAGCAGCCGGAGAAAUUCUGAAGGAAGUGAAUCAACAGAGGAUUGAGCAUCA
# B15: ENSG00000198589:be:win_6001|CDS|ENSG00000198589|bound_else_gene|NA|bound_elsewhere_windowed (ssRNA)
# RNA: GGGAGUUCUACAGUCCGACGAUCGGAUCGACACAUCCUGAAGCGACACUAAAAACAGCCGUGGAACAUGCCACAGAUGAAGAUAUCCUUGCUAAAGGAAAACAGUCCAUCAGGAGUCAGGCUUUAGGAAAUCAGAACUCAGAACAACAGAGGAUUGAGCAUCA
# B16: chr3:44491765:44499181:-|three_prime_utr|ENSG00000178917|control|control|control (ssRNA)
# RNA: GGGAGUUCUACAGUCCGACGAUCACUAAUCACAGUGGAGACCAUACCUACUUGCUUUUCCUUGGGUCACUAAGGUGGGAGAGUAGGUGCAACUUAGUCUGAUCCUUACUUAGUAGGAAAUUGGGGAUUACAUCUGUCAUUAACCAACAGAGGAUUGAGCAUCA
# B17: chr2:171482635:171482736:+|3pUTR|ENSG00000115827|unk|total|mutant (ssRNA)
# RNA: GGGAGUUCUACAGUCCGACGAUCCAAGAGUGUUUCAGAACCGGAUGUCUUAAGACUUCAGUCAUGUCAGAGAUUUUUUUUUUCCGGUGAUUAUUGAGUUUCUCCUUCUCCUUUAAGUCAUCACCUUCCUUUUAUGAAAUGAUACAACAGAGGAUUGAGCAUCA
# B18: chr14:71589133:71589262:+|CDS|ENSG00000197555|unk|total|mutant (ssRNA)
# RNA: GGGAGUUCUACAGUCCGACGAUCGAGACCGGUGGAGAAGGGGAGAGGAAAAUCAGCCUUUCAAAAUCAAAUUCUGGCUCCUUCCGUGGAUGUGAAAGUGCCUCCUUUGAGUCUACCCUCCGUUCCCAUUGCACAAAUGCAGGACAACAGAGGAUUGAGCAUCA
# B19: ENSG00000107863:be:win_2101|CDS|ENSG00000107863|bound_else_gene|NA|bound_elsewhere_windowed (ssRNA)
# RNA: GGGAGUUCUACAGUCCGACGAUCGGUACUUCAGAUUUAGAACUACCUGUCAGUCAAAGGAAUCAAGAUUUAAGUUUACAAGAGGCUGAAACUGAGCAAUCAGAUACUUUAGAUAAUAAAGAAGCUGUCAUCCUAAGGGAAAAACAACAGAGGAUUGAGCAUCA
# B20: ENSG00000136451:be:win_2651|3pUTR|ENSG00000136451|bound_else_gene|NA|bound_elsewhere_windowed (ssRNA)
# RNA: GGGAGUUCUACAGUCCGACGAUCUUUAAAUUUCUCCUUCCGUUUCUUAAGUAUUGCGCAGAUUUGUUCAACUUUGUAAAUAUGGACAUCACUUUUUUUUUCUUUGAGAAAACACUUGUAUCAGCUUUGUGGUGUUUUCAGGGACAACAGAGGAUUGAGCAUCA
# B21: chr2:227144361:227144754:-|three_prime_utr|ENSG00000081052|control|control|control (ssRNA)
# RNA: GGGAGUUCUACAGUCCGACGAUCGGCAAUGAUGGCAGCCAGAGAGAGGAAAGCAUGGAUCUUGUCACUGAUGACAAGUCGGCUAGUAGGAGCAGCCUCAUAGAAAUAAAAAGUAGCUUUCUGGAAUUAAUUCCUUUACUCUUUCAACAGAGGAUUGAGCAUCA
# B22: ENSG00000070961:be:win_1651|CDS|ENSG00000070961|bound_else_gene|NA|bound_elsewhere_windowed (ssRNA)
# RNA: GGGAGUUCUACAGUCCGACGAUCGGACUUCUUUUGGAUUUAAAACGGGAUUAUCAGGAUGUUAGAAAUGAAAUACCAGAAGAAGCACUGUACAAAGUCUACACCUUCAAUUCUGUUAGGAAGUCCAUGAGUACUGUCCUGAAACAACAGAGGAUUGAGCAUCA
# Target: MSI1 full-length (mouse, UniProt Q61474 1-362)
# Sequence of UniProt Q61474 (Q61474 whole entry): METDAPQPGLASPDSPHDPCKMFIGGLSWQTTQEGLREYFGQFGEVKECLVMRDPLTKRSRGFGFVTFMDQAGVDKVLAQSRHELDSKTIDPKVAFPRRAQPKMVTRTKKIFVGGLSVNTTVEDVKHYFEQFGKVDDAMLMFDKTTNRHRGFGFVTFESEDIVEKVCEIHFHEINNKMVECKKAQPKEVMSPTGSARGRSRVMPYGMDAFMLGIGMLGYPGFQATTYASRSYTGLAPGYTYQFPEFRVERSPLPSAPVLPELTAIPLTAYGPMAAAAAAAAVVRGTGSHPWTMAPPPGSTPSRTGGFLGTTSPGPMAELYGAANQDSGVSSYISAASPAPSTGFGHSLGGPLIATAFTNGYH
# Assay: nsRBNS (natural sequence RNA bind-n-seq); RBNS binding buffer (assumed for nsRBNS): 25 mM Tris pH 7.5, 150 mM KCl, 3 mM MgCl2, 0.01% Triton X-100, 500 ug/ml BSA, 20 U/ml SUPERase-In, 4 C; UNK is unkempt and MSI1 is Musashi-1; names of the RNAs are library labels; protein concentration not given here; high values mean tight binding
row,Binder,binding signal [enrichment R]
1,B1,2.83
2,B2,0.305
3,B3,0.61
4,B4,0.328
5,B5,0.297
6,B6,0.352
7,B7,0.573
8,B8,1.39
9,B9,71.9
10,B10,1.24
11,B11,0.578
12,B12,13.5
13,B13,0.813
14,B14,0.382
15,B15,0.325
16,B16,0.646
17,B17,0.495
18,B18,0.392
19,B19,1.29
20,B20,0.782
21,B21,2.59
22,B22,0.47
